Measurements taken from the RNAGym collection of RNA variant scans (doi:10.7554/elife.90254).
The source gives no read counts; variants with many changes may rest on few reads.

B1: LINE1-full (parent)
chain: UACGUAGGUGGUUUUCCCCUGAUAGUGCUAAGGGGGCCUGGAAGUUUGGACUGGGCAGAGCUCAACACAGCGUGGCAAAGUGGCUGUGGCUAGACUGCCUCUCUGGAUUCCUCGUCACUCAGCAGGGCAUCUCUGAGAGAAAUGCC

Variants of: B1
Assay: self-cleavage, relative activity (ratio to wild type); higher = more cleavage; in vitro, sequencing; the parent is a self-cleaving ribozyme
C17G A57U U73A G86A showed a self-cleavage of 0.
C16U C63U U85C U143C gave a self-cleavage of 0.
In the case of C18U G33U U134C, the self-cleavage is reported as 0.79.
U15G A42G A43G U85A U115C showed a self-cleavage of 0.
In the case of C17U U100C A141G, the self-cleavage is reported as 1.28.
In the case of C18A U85A G105A A142G, the self-cleavage is reported as 0.13.
For C18A A57G U104A U112A C116U U143A, the self-cleavage was 0.34.
In the case of U15C G41U A43G, the self-cleavage is reported as 1.28.
U15C U96A G127A showed a self-cleavage of 0.05.
In the case of U15C C19U C63U A67G A78G A141G, the self-cleavage is reported as 0.13.
Work on U15A U46C A138U yielded a self-cleavage of 2.
With U15C C90U U108C the self-cleavage was 0.07.
U15C U130C A136G showed a self-cleavage of 1.52.
Work on U15C G74A U81G U87C A129U yielded a self-cleavage of 0.15.
U15C U132C A140G showed a self-cleavage of 2.1.
With C18U C56U A142G the self-cleavage was 0.17.
U15C A129U U130C gave a self-cleavage of 1.84.
In the case of U15C U52A U91C, the self-cleavage is reported as 0.
C19U A30G A79G showed a self-cleavage of 0.31.
U15C A22C A142G showed a self-cleavage of 1.37.
Variant U15C C37U A59G has a self-cleavage of 0.08.
Work on U15C U102C U132C yielded a self-cleavage of 1.01.
In the case of U15C U29C A30G A77U U119A, the self-cleavage is reported as 1.2.
In the case of C19A U73C A121G, the self-cleavage is reported as 2.76.
Variant U15C U96C U102C G105A has a self-cleavage of 0.16.
C19A G72A A121G showed a self-cleavage of 1.25.
For U15C U62C G93A C99U U108A, the self-cleavage was 0.05.
Variant U15C U109A A129U has a self-cleavage of 2.69.
For U15C U45A A65G U119A A129G, the self-cleavage was 0.
U15C C28G U81A U134C U143A showed a self-cleavage of 1.06.
U15C A50G A77U A94U A136G showed a self-cleavage of 0.13.
For C18U G27A A42G C51U, the self-cleavage was 1.28.
In the case of U15C A43G G97A U115A A141G, the self-cleavage is reported as 0.07.
C16U C110A A121U C128A gave a self-cleavage of 0.91.
With U15G A59G A65U C90A U108C A129G the self-cleavage was 0.
With U15C A77G U134A the self-cleavage was 2.42.
U15C A57U C68U gave a self-cleavage of 0.03.
For C17A U39C U85C U119C A124U A129U A142G, the self-cleavage was 0.
C18U U20C A138G gave a self-cleavage of 0.66.
U15C C51U A140U A141G showed a self-cleavage of 1.21.
In the case of U15A U46C A79C U108C, the self-cleavage is reported as 0.
Variant U15C U26A G83A U134C has a self-cleavage of 0.98.
Work on U15C C28U A64G yielded a self-cleavage of 0.26.
Variant U15C A43G G83A has a self-cleavage of 0.93.
Work on U15C G88A A138U A141G yielded a self-cleavage of 0.06.
With U15A U46C U119C the self-cleavage was 1.47.
Variant U15C U23C U29C A138U has a self-cleavage of 0.9.
With U15C U96C U143G the self-cleavage was 0.
For U15C U45C U52C A121G, the self-cleavage was 1.15.
Variant U15A U102C A124U has a self-cleavage of 0.71.
U15C U26A A42G U85A gave a self-cleavage of 0.24.
Variant C17U U29C U47G A67G A78G A94G C95U C128U U132A has a self-cleavage of 0.
Variant C18A A43C A65G A140U A142G has a self-cleavage of 0.
Variant U15C U39A U73C C95A has a self-cleavage of 0.26.
For C18U C28G U104C, the self-cleavage was 1.53.
Variant U15C U39C A117U has a self-cleavage of 1.55.
In the case of C17U G49A A78G A79G U115C, the self-cleavage is reported as 1.31.
In the case of C17U U87A A107U, the self-cleavage is reported as 0.14.
C19U A43G U46C A59G showed a self-cleavage of 0.24.
U15C G33U C56U A69G U85C U143C gave a self-cleavage of 0.23.
Variant C17U U143A G144A has a self-cleavage of 1.61.
Work on C19U A64U A65G U115G U132C yielded a self-cleavage of 0.
U15C G40U A64C U85C gave a self-cleavage of 0.08.
Variant U15C U52A A129U A138G has a self-cleavage of 1.81.
For C16A A64G U130G, the self-cleavage was 0.51.
For U15C A31G A64U, the self-cleavage was 0.95.
With U15C A31G A64G the self-cleavage was 0.8.
In the case of U15C A79G C95U U102C U134A, the self-cleavage is reported as 0.1.
Variant U15C A59G A136C has a self-cleavage of 0.21.
Work on U15C A31U U47A A64G U73C yielded a self-cleavage of 0.
Work on U15C A67G U87C A129G A141G yielded a self-cleavage of 0.
Work on C16A A67U G75U U85C A107G yielded a self-cleavage of 0.03.
Variant U15C U81C U87C has a self-cleavage of 0.
C19U A22G U96C A138G gave a self-cleavage of 0.
Variant U15C C19U A30G U85A U130C has a self-cleavage of 0.09.
Variant U15C U102A U115C has a self-cleavage of 1.34.
C16U U115C U134C gave a self-cleavage of 1.36.
For U15A U87A U130C, the self-cleavage was 0.
U15C U46G A138G gave a self-cleavage of 1.48.
Variant C18U A57G A78G A79G has a self-cleavage of 0.
C18U U109A A129G gave a self-cleavage of 1.14.
Work on U15C C19U U115C A124G yielded a self-cleavage of 0.77.
U15C C37U U85A showed a self-cleavage of 0.05.
Work on U15C U20C A69G yielded a self-cleavage of 0.09.
In the case of U15C U29C U73C, the self-cleavage is reported as 0.
Variant U15C U119A U130C has a self-cleavage of 2.18.
In the case of C19A A77G U96C, the self-cleavage is reported as 0.17.
In the case of U15C G32U U102A U119C A141G, the self-cleavage is reported as 1.66.
For U15C U96A G126A, the self-cleavage was 0.08.
With U15C A43G G49A U102C A138G the self-cleavage was 1.34.
For U15A U115C A138G, the self-cleavage was 0.33.
U15C C17U C71U A78G gave a self-cleavage of 0.32.
U15C U23C A59G C66U A140G gave a self-cleavage of 0.08.
C17A G34U C90G C128U gave a self-cleavage of 0.02.
C18G A50G U112C A129G A138G gave a self-cleavage of 0.
In the case of U15C U39C A50U U81C A94G U143C, the self-cleavage is reported as 0.57.
In the case of U15A U47C A50U U73C G125A U143C, the self-cleavage is reported as 1.06.
Work on U15C U62A A107G A140G yielded a self-cleavage of 0.
Work on U15C U46A U91A A92U yielded a self-cleavage of 1.09.
U15A U81G A121U C145U gave a self-cleavage of 0.84.
C16U A31G G88U U104C gave a self-cleavage of 0.21.
In the case of U15C A50G U87C G122A, the self-cleavage is reported as 0.13.
Variant U15C U81C U104A has a self-cleavage of 2.12.
In the case of U15G U47A G74A A124G, the self-cleavage is reported as 0.54.
C18U U52A A59G G80A showed a self-cleavage of 0.06.
For U15C U29C A42G A138G A142G, the self-cleavage was 2.76.
For U15C G27A U46C A121U, the self-cleavage was 0.9.
U15C U85A A94U showed a self-cleavage of 0.12.
U15C U23C A67U A107G gave a self-cleavage of 0.16.
U15C A43G A92U gave a self-cleavage of 0.38.
With U15A U109C C146U the self-cleavage was 0.86.
U15C U108C U143C gave a self-cleavage of 1.76.
In the case of C18U A24G G25A C66A U85A U102C U112C, the self-cleavage is reported as 0.
For U15C A24U A94G G105A, the self-cleavage was 0.59.
In the case of U15C A30G U108C U115A U143C, the self-cleavage is reported as 1.41.
Variant U15C U62C U100C has a self-cleavage of 0.22.
With C19U A59G C123A U130A A136G the self-cleavage was 0.15.
U15C A57G G89U A138G gave a self-cleavage of 0.04.
U15C U52A A57G U81C gave a self-cleavage of 0.97.
U15C A22G A43G showed a self-cleavage of 1.15.
For U15G U29C A65G U85A U104A U130A, the self-cleavage was 0.
With C16U U46C U47C U130C the self-cleavage was 0.31.
Variant U15C C37U U52A G72A U87C C95U U112C A140U has a self-cleavage of 0.05.
For U15C A22G A65U A77G A142U, the self-cleavage was 0.53.
C19U A31U A42G U104A gave a self-cleavage of 0.73.
U15C U47C A67G A121U A129U gave a self-cleavage of 0.41.
For U15C G27A U85A U104C, the self-cleavage was 0.02.
U15C U81A U91C U102C gave a self-cleavage of 2.23.
With U15C G88A A136U the self-cleavage was 0.07.
With C19A A50U A64U U115C A117G the self-cleavage was 0.87.
For C18G U26C U47C A65G C84U U96A, the self-cleavage was 0.
In the case of C19G C61A A77G A142G, the self-cleavage is reported as 0.07.
C19A G34C G55A U81C showed a self-cleavage of 0.46.
Work on C16A U29C U96A A140G yielded a self-cleavage of 0.16.
Work on C19A A57U G126U A138G yielded a self-cleavage of 0.1.
U15C A64C C123U showed a self-cleavage of 0.66.
Work on C16A U96G U102A C110A U112C yielded a self-cleavage of 0.
U15C U134A A140G gave a self-cleavage of 0.64.
C19U A92C U96A gave a self-cleavage of 0.09.
Work on U15C A92G C128U yielded a self-cleavage of 0.18.
U15C A22G U26C gave a self-cleavage of 0.97.
U15C A31U A78G A94U U96C gave a self-cleavage of 0.37.
U15C U81A U115C gave a self-cleavage of 2.03.
Work on U15C G53A A59G yielded a self-cleavage of 0.1.
For U15C U26C U85A, the self-cleavage was 0.28.
U15A U104C U132A showed a self-cleavage of 1.62.
With C19A A43G A77G A121G the self-cleavage was 1.71.
Variant U15C A78U U104A U112A has a self-cleavage of 2.44.
With U15C U87A U96G A138G the self-cleavage was 0.22.
Variant C17U A43G G48C C63U A64G U112C A142C has a self-cleavage of 0.33.
Variant U15C A59U A107U has a self-cleavage of 1.
Work on U15C G72C U85C yielded a self-cleavage of 0.32.
Variant U15C A94G C98U U112C has a self-cleavage of 0.11.
Work on C16U G74A A77G yielded a self-cleavage of 0.93.
Variant U15G A67G A129G U134C has a self-cleavage of 0.
For U15C U20C A43U A59G, the self-cleavage was 0.15.
With C17U G32A A78G A138G A141G the self-cleavage was 0.8.
U15C A30G U119C A129G A141U A142G gave a self-cleavage of 1.84.
Work on C17U U20A U132A yielded a self-cleavage of 0.9.
In the case of U15C C17U U20A U26C A107G A121U, the self-cleavage is reported as 0.92.
In the case of U15C U91C A107G A129U, the self-cleavage is reported as 0.98.
C19U A65G A69U A107U showed a self-cleavage of 0.08.
U15A U81A U132A gave a self-cleavage of 1.63.
In the case of C19A G49A U73C A94U U132C, the self-cleavage is reported as 0.
Variant U15C U73G U112C has a self-cleavage of 1.17.
With C17A A77G U104C U132G A136U the self-cleavage was 1.67.
U15C G49A C111U gave a self-cleavage of 0.66.
